ChEMBL document CHEMBL1201862, “PubChem BioAssay data set” (2004)
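Cultured in 96-well plates, cells were exposed to test compound for 48 hours across five concentrations. GI50 = concentration required for 50% inhibition of growth.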 Active and inactive are the calls of the source. Cut-off read from the data, not from the text of the source: active = GI50 up to about 1.1 µM and inactive = higher.

The molecules below were run on NCI-H322M (assay: NCI tumour cell line growth inhibition, 48 h).
COc1cc(C(=O)Nc2nnc(S(N)(=O)=O)s2)cc(OC)c1OC was tested, and the GI50 was inactive: > 100 µM. In the case of c1coc(CNc2[nH]cnc3nncc2-3)c1, the GI50 is reported as inactive: > 100 µM. In the case of O=C(O)CCSc1nnc(COc2ccc(Cl)cc2)n1-c1ccccc1, the GI50 is reported as inactive: > 100 µM. With Cc1[nH]c2ccccc2c1-c1cc(-c2cc(-c3c(C)[nH]c4ccccc34)nc(N)n2)nc(N)n1 the GI50 was inactive: > 100 µM. With O=S(=O)(/C=C/C=C/S(=O)(=O)c1ccccc1)c1ccccc1 the GI50 was inactive: 15.3 µM. For CN(C)CCC[N+]1=Nc2cccc3cccc(c23)N1, the GI50 was inactive: > 100 µM. In the case of C=CC[C@H]1[C@H](O[Si](C)(C)C(C)(C)C)C=CC(=O)[C@@H]1CC(=O)OCC, the GI50 is reported as inactive: 14.9 µM. For CCOC(=O)NC(=O)c1cn(C(CC)COC(=O)NCCCCCCNC(=O)OCC(CC)n2cc(C(=O)NC(=O)OCC)c(=O)[nH]c2=O)c(=O)[nH]c1=O (stereo not given), the GI50 was inactive: > 100 µM. NC(=S)N/N=C/c1ccc(OC(=O)COc2ccccc2Cl)cn1 was tested, and the GI50 was inactive: 39.4 µM. O=C(O)C12C3CCC(CC3)C1(C(=O)O)C1CCC2C1 (stereo not given) was tested, and the GI50 was inactive: > 100 µM. For CCOC(=O)CCC(NC(=O)c1ccc(NC(OC)c2nc3cc(C(F)(F)F)ccc3nc2-c2ccccc2)cc1)C(=O)OCC (stereo not given), the GI50 was inactive: 15.4 µM. For Cc1c2c(n3c(nc4ccccc43)c1C#N)SCC2, the GI50 was inactive: > 10 µM. With Cc1ccc(-c2c(-c3ccccc3)[nH]c(C)c2C(=O)ONC(=O)c2ccccc2)cc1 the GI50 was inactive: 11.4 µM. In the case of O=C(O)c1ccc(Nc2nc3ccc(C(F)(F)F)cc3nc2-c2ccccc2)cc1, the GI50 is reported as inactive: 41.3 µM. C[C@]12CC[C@H]3[C@@H](CCC4=CC(=O)CC[C@@H]43)[C@@H]1CC[C@]2(O)C(N)=O was tested, and the GI50 was inactive: > 100 µM. For CC1=NN(C(=O)CC(=O)Nc2ccc(Cl)cc2)C(=O)C1/N=N\c1ccc(S(=O)(=O)c2ccc(/N=N/C3C(=O)N(C(=O)CC(=O)Nc4ccc(Cl)cc4)N=C3C)cc2)cc1 (stereo not given), the GI50 was inactive: > 100 µM. COC(=O)NC(=O)NC(Cc1ccccc1)NC(=O)OCc1ccccc1 (stereo not given) was tested, and the GI50 was inactive: > 100 µM. For CCCCCCCCCC1CC(=O)NCC(=O)NC(C(C)C)C(=O)NC(CC(C)C)C(=O)NC(C)C(=O)NC(C(C)C)C(=O)O1 (stereo not given), the GI50 was inactive: 14.8 µM. For O=C1Nc2ccccc2/C1=N/N1C(=O)/C(=C/c2ccccc2S)N=C1c1ccccc1, the GI50 was inactive: > 100 µM. In the case of Cc1ccc(O)c(C2=NNC(c3cccc(Cl)c3)C2)c1 (stereo not given), the GI50 is reported as inactive: 67 µM. For CN(C(=O)C12C3C4C1C1C2C3C41I)C(C)(C)C (stereo not given), the GI50 was inactive: > 100 µM. With c1csc(-c2cc(-c3ccsc3)cs2)c1 the GI50 was inactive: > 100 µM. CCOC(=O)c1c(C)n(-c2ccc(Cl)cc2)c2c1cc(O)c1[nH]c3c(c12)CCCC3 was tested, and the GI50 was inactive: 63 µM. In the case of N#CCCC[Si]12OCCN(CCO1)CCO2, the GI50 is reported as inactive: > 100 µM. With O=C1C(Nc2ccc(S(=O)(=O)Nc3cnc4ccccc4n3)cc2)=C/C(=N\c2ccc(S(=O)(=O)Nc3cnc4ccccc4n3)cc2)c2ccccc21 the GI50 was inactive: 17.5 µM. In the case of CN1CCN(c2ccc3nc(C4=C(O)C(=O)c5c(nc(CO)n5C)C4=O)[nH]c3n2)CC1, the GI50 is reported as inactive: > 100 µM. C/C(=C\CO)CC/C=C(\C)CNc1c(F)c(F)c(F)c(F)c1F was tested, and the GI50 was inactive: 24.6 µM. With c1ccc(CSc2nc(N3CCCCC3)c3cn[nH]c3n2)cc1 the GI50 was inactive: 29.7 µM. With CC1CCC(C(C)C)C(OC(=O)NCn2cc(-c3ccccc3)nn2)C1 (stereo not given) the GI50 was inactive: > 100 µM. [O-][S+]1C(=c2ccc(=C3Sc4ccccc4S3)cc2)Sc2ccccc21 (stereo not given) was tested, and the GI50 was inactive: 17.7 µM. With CC1CC[C@@H](C(C)C)[C@H](Oc2nnc(C3OC(CO)C(O)C3O)o2)C1 (stereo not given in full) the GI50 was inactive: > 100 µM. With C[C@]12CCC3[C@@H](CC[C@@H]4c5nonc5CC[C@]34C)C1CCC(=O)N2 (stereo not given in full) the GI50 was inactive: > 100 µM. With COc1cc2c(cc1OC)[C@H]1CN3CCC[C@H]3C=C1c1ccc(OC)c(O)c1-2 the GI50 was active: 0.000518 µM. With N#Cc1ccccc1Nc1ccccc1S the GI50 was inactive: 63 µM. For CC(=O)OCC1OC(n2c(C)cc(C)c(C#N)c2=S)C(OC(C)=O)C(OC(C)=O)C1OC(C)=O (stereo not given), the GI50 was inactive: > 100 µM. For C=C/C(C)=C\CC1[C@](C)(O)CC[C@H]2C(C)(C)C(O)CC[C@]12C (stereo not given in full), the GI50 was inactive: > 100 µM. For COc1ccc2oc(C(=O)N3CC(CCl)c4ccc([N+](=O)[O-])cc43)cc2c1 (stereo not given), the GI50 was inactive: > 100 µM. For NNC(=O)/C(=C/c1cccc([N+](=O)[O-])c1)NC(=O)c1ccccc1, the GI50 was inactive: > 100 µM. In the case of Brc1ccc(/N=N/c2ccc3ccccc3n2)cc1, the GI50 is reported as inactive: 18.2 µM. For Cc1cnc(-c2ccccc2)o1, the GI50 was inactive: > 100 µM. With CCCC/C=C1\CCC(CN2CCCC2)C1=O (stereo not given) the GI50 was inactive: 17.7 µM. In the case of NNC(=S)N/N=C/C(Cl)=C(\Cl)C(=O)O, the GI50 is reported as inactive: > 100 µM. With Fc1cc(C2=C[C@H](c3ccc4c(c3)OCO4)NC(=S)N2)c(Cl)cc1Cl the GI50 was inactive: 42.3 µM. In the case of COc1cc(/C=C/c2cc(/C=C/c3ccc(O)c(OC)c3)oc(=O)c2)ccc1O, the GI50 is reported as inactive: 4.11 µM. In the case of CCNCCNC(=O)c1ccc(I)cc1, the GI50 is reported as inactive: > 100 µM. In the case of CN(C(=O)Nc1ccc(Cl)c(Cl)c1)C1CCCC[C@@H]1N1CCCC1 (stereo not given in full), the GI50 is reported as inactive: 81.7 µM. In the case of O=C(Nc1ccc(Cl)cc1)c1cc2c(cc1Cl)SC(NNCCO)=NS2(=O)=O, the GI50 is reported as inactive: > 100 µM. For N[C@H](C(=O)O)[C@H](Cl)CC(=O)O, the GI50 was inactive: > 100 µM. With CC1=Nc2ccccc2C1C(Cc1ccccc1N)c1c(C)[nH]c2ccccc12 (stereo not given) the GI50 was inactive: 18 µM. With Cc1ccc(/C=C/C(=N/NC(=O)N/N=C(/C=C/c2ccc(C)cc2)C(C)(C)CN2CCCCC2)C(C)(C)CN2CCCCC2)cc1 the GI50 was inactive: 1.95 µM. Cc1cc(=O)oc2cc(OC(=O)Nc3ccccc3)ccc12 was tested, and the GI50 was inactive: > 100 µM. C=C(CN(CC)CC)C1(c2ccccc2)CC2(CCCC2)C(=O)O1 (stereo not given) was tested, and the GI50 was inactive: > 100 µM. With O=c1c2ccccc2nc2n1C(c1ccc([N+](=O)[O-])cc1)C2(c1ccccc1)c1ccccc1 (stereo not given) the GI50 was inactive: > 100 µM. For CCOC(=O)C(=O)/C(=C/NC(=S)c1ccncc1)C(=O)OCC, the GI50 was inactive: > 100 µM. For CC(C)=CC(=O)c1c(C(=O)O)nc2ccccc2[n+]1[O-], the GI50 was inactive: > 100 µM. In the case of CC(C)[Si](Oc1cc2c3c(ccc2c(O)c1[C@@H](C)CO[Si](C)(C)C(C)(C)C)C(C)(C)CCC3)(C(C)C)C(C)C, the GI50 is reported as inactive: > 100 µM. In the case of CC(SC(=S)N1CCOCC1)c1cc2oc(=O)n(C)c2cc1Cl (stereo not given), the GI50 is reported as inactive: > 100 µM. With CCCCCCCCCCCCCCCC(=O)ON1C(=S)NC(C)(c2ccccc2)C1=S (stereo not given) the GI50 was inactive: > 100 µM. With O=C(NC(Cc1c[nH]c2ccccc12)C(=O)Nc1ccc(Br)cc1)OCc1ccccc1 (stereo not given) the GI50 was inactive: 16 µM. COc1ccc(-n2c(=O)c3nc[nH]c3n(-c3ccc(OC)cc3)c2=S)cc1 was tested, and the GI50 was inactive: > 100 µM. With O=C1c2ccccc2C(=O)c2sc(Nc3ccc([N+](=O)[O-])cc3)nc21 the GI50 was inactive: 13.5 µM. O=C1OC2(OC2c2ccccc2)c2ccccc21 (stereo not given) was tested, and the GI50 was inactive: > 100 µM. With CCOC(=O)C(C(O)c1ccc([N+](=O)[O-])cc1)P(=O)(OCC)OCC (stereo not given) the GI50 was inactive: > 100 µM. With C[Si](C)(C)OC1(C#N)C2C3CC4C2C(=O)C2C4C3C21 (stereo not given) the GI50 was inactive: > 100 µM. With CC1=NN(c2ccc(S(=O)(=O)O)cc2)C2(C1)C(Cl)C(=O)N2c1nc2ccccc2s1 (stereo not given) the GI50 was inactive: > 100 µM. With CCOC(=O)c1[nH]c(CN(C)Cc2[nH]c(C(=O)OCC)c(C)c2C(=O)OCc2ccccc2)c(C(=O)OCc2ccccc2)c1C the GI50 was inactive: 26.1 µM. In the case of COC(=O)c1ccc2c(c1)CC1(C2)Cc2ccc3c(c2C1)CCC3 (stereo not given), the GI50 is reported as inactive: 58.5 µM. In the case of OC1CN2Cc3cc4c(cc3[C@]13C=C[C@@H](O)CC23)OCO4 (stereo not given in full), the GI50 is reported as inactive: 17.3 µM. With Cc1cc(C)c2c(n1)S(=O)(=O)N(CCCN1CCN(c3cccc(Cl)c3)CC1)C(C(=O)c1ccccc1)=C2O the GI50 was inactive: 29.6 µM. With O=C(O)Cn1ncn(NC(=O)Cc2ccccc2)c1=S the GI50 was inactive: > 10 µM. With OC1(c2ccccc2)c2ccccc2N=C2NCCN21 (stereo not given) the GI50 was inactive: > 100 µM. For CSC1(C(=O)O)C2CCC3C2CCC31 (stereo not given), the GI50 was inactive: > 100 µM. COc1cccc(C2c3cc4c(cc3OC(C)(N3CCCC3)C2C)OCO4)c1 (stereo not given) was tested, and the GI50 was inactive: 25.5 µM. In the case of COc1ccc(C2CC(=O)CC(c3ccc(OC)cc3)C23C(=O)NC(=O)NC3=O)cc1 (stereo not given), the GI50 is reported as inactive: 21.6 µM. In the case of O=C1Oc2cc3c(c4cccc1c24)O[C@H](c1ccccc1)[C@@H](c1ccccc1)[C@@H]3c1ccc(Cl)cc1, the GI50 is reported as inactive: > 100 µM. In the case of CC(C)(C)CN1[C@@H]2CCCC[C@H]2N(CC(C)(C)C)P1(=O)C(O)/C=C/c1ccccc1 (stereo not given in full), the GI50 is reported as inactive: 49.4 µM. With CN1CCC/C1=C1/C(=O)N(c2ccccc2)N=C1c1ccc[nH]1 the GI50 was inactive: > 100 µM. For NC1=C(Cl)C(=O)c2c(O)ccc(O)c2C1=O, the GI50 was inactive: 1.74 µM. Cc1ccc(NC2=CC(=O)C(NO)c3ccccc32)cc1 (stereo not given) was tested, and the GI50 was inactive: 11.2 µM. For CCCCCCCCCCCCCCCc1nnc(S)[nH]1, the GI50 was inactive: > 100 µM. CC(NC(=O)c1ccc(NP(=O)(OCc2ccc([N+](=O)[O-])o2)N(C)CCCCCl)cc1)c1ccc(OCC2CCCCC2)c(C(N)=O)c1 (stereo not given) was tested, and the GI50 was inactive: 13.2 µM. For N#C[BH2-][n+]1ccc(C(=O)NNCc2ccc(F)cc2)cc1, the GI50 was inactive: > 100 µM. With CCOC(=O)C1C=C2O[C@@H]3OC4(CCCCC4)O[C@@H]3C2C2C(=O)CCC(=O)[C@@]12C(=O)OC (stereo not given in full) the GI50 was inactive: > 100 µM. CCCCC[C@@H]1CCCC2NC(CCCCCO[Si](c3ccccc3)(c3ccccc3)C(C)(C)C)CCC21 (stereo not given in full) was tested, and the GI50 was inactive: 15.3 µM. CN(C(=O)/C=C/c1ccccc1)C1C2CN3CCC(O2)C13 (stereo not given) was tested, and the GI50 was inactive: > 100 µM. In the case of Cc1csc2c1-n1cccc1C2=O, the GI50 is reported as inactive: > 100 µM. For CCCCCCCCCCCCCCCCCC(=O)NCC(COP(=O)([O-])OCC[N+](C)(C)C)OC (stereo not given), the GI50 was inactive: 13.4 µM. In the case of CCN(CC)CCCNC(=O)c1ccc([N+](=O)[O-])cc1O, the GI50 is reported as inactive: > 100 µM. Clc1ccc(CCN2CCN(CCCc3ccccc3)CC2)cc1Cl was tested, and the GI50 was inactive: 18.7 µM. Oc1ccc(-c2nc3cc(F)ccc3s2)cc1 was tested, and the GI50 was inactive: 29.3 µM.
